87 sequences from the supplement of paper PMC11417369 can be followed below.

Some of the results follow.

The assay relates to PfAP2-HC AP2 domain (GST-tagged). Description: gcPBM binding intensity (ln(normalized median fluorescence intensity)); higher = stronger DNA binding. Summed up:
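Plasmodium falciparum DNA-binding domains carrying a GST tag were expressed in E. coli and applied for 1 h, at about 25 μg on average, to an Agilent 4 × 180k array. The array held primer-extended double-stranded 36-bp intergenic genomic probes together with negative controls, and binding took place in 1× PBS with 1% milk, 0.2 mg/ml BSA, 0.5% salmon testes DNA and 0.03% Triton X-100. An Alexa488 anti-GST antibody detected bound protein, and the array was scanned at 488 nm. Binding intensity is taken as the highest Masliner-normalised natural-log median intensity across replicate spots of either probe orientation.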
For “AAGTTATATTTGTGTACACATAATTTTATACTAATA [CACACA_site5553]”, the “gcPBM binding intensity (ln)” value was found to be 9.79. For “TATTTAATACGGACTCATAAATCTTAATAAAAAAAA [CACACA_negctrl_site434]”, the “gcPBM binding intensity (ln)” value came out at 9.42. With “TGATAATAAGCATACACACACACACTAGAAAAAAAA [CACACA_site4558]” the figure was 11.5; with “TGTTCTTTATTTTATTGTACTTTTAAAATTCCTTTA [XGTACX_site8058]”, 9.73. With “TTATTTATAAACATATGTACTAATACATGATTAACA [XGTACX_site7645]” the figure was 9.47; with “GACATATATATAAAATGTACATATATATTTACATAT [XGTACX_site7822]”, 9.82; with “TATAAAAAAAACGAAAAAAAAAAAAAAAATACAGGA [TGCATGCA_negctrl_site585]”, 9.82. With “ATATATTTTTAAAAAAATTAAGAATTTTACATCTCC [CACACA_negctrl_site1450]” the figure was 9.32. In the case of “AAAAAAAAAAGACATGCATACGCTAATTTTTAGTTG [TGCATGCA_site300]”, the “gcPBM binding intensity (ln)” value worked out at 9.51.

On to “TATTATAATAAGAAGTGTACGTGTTTTTATAAATAA [XGTACX_site575]”, for which the “gcPBM binding intensity (ln)” value came out at 9.5. With “TTACAAAATAAGAGGCACAAACACAAAAAAAAATAA [CACACA_negctrl_site574]” the figure was 9.82; with “AAAAAAAAAAGACACACACACAAAAAAAGATATATA [CACACA_site6645]”, 10.7.

On to “TAGAATAAGATAGATATACACACCATTATAAATATA [CACACA_site2500]”, for which the “gcPBM binding intensity (ln)” value stood at 9.87. On to “TGTAAAAAATTTAACACACACATATATATATATATA [CACACA_site2585]”, for which the “gcPBM binding intensity (ln)” value is 9.76.

“ATTACAATATATACGTGTACATATTACCACCGCTAC [XGTACX_site2308]”: the “gcPBM binding intensity (ln)” value turned out to be 9.63. Then “ATAAAAATATTACGCACACACAAACTTATTCATTAT [CACACA_site1969]”, with 10.2. With “GTAACTTTATTATACTGTACTATTATATAAGCACAC [XGTACX_site2859]” the figure was 9.79. Then “TTGTTCAAACAAAAAATAAAATAATTGAAAATAAAA [CACACA_negctrl_site812]”, with 9.51. With “AGTTGTTACGAACATACACACGAACATAGACACGGA [CACACA_site8102]”, the “gcPBM binding intensity (ln)” value turned out to be 9.91.

Take “TTATTTAAATAATATGTACACACATTTAAAAAATTA [CACACA_site8912]”: the “gcPBM binding intensity (ln)” value was found to be 9.52. With “AAAAAAAAATATATAAACACACATATTTATATACAC [GTGCAC_negctrl_site545]” the figure was 9.76; with “ATGAGTGTAATAATATGTACATAACCTACATAATTT [XGTACX_site852]”, 9.85; with “GGATGCACACAAAAGGGTACATAAGAAAAAAACAGG [XGTACX_site8570]”, 9.89.

For “CACGCACAGATATATACACACTTTTATTTAAATAAC [CACACA_site6852]”, the “gcPBM binding intensity (ln)” value was 9.91. Regarding “AAAAATAAAATGGACACACACGTTCAAATTTAGATT [CACACA_site5186]”, the “gcPBM binding intensity (ln)” value turned out to be 10.1. Then “TGGGTAAACAAACACACACACATATATATATATATA [CACACA_site1992]”, with 10.3; and “AAATATATATATAGTTGTACATATATCGTATATATT [XGTACX_site7867]”, with 9.8.

With “TTCACTAATAAATACGCACACATATACAGATATATA [CACACA_site4887]”, the “gcPBM binding intensity (ln)” value was 9.94. With “AAAAAAAATTATTATGAACACACATTTATTATATTC [CACACA_site8443]” the figure was 9.7; with “ATTCTACACAGACATACACACATATATATATATATA [CACACA_site5826]”, 9.93. Then “TATATATGTTTATGTAGTACTATATATCCCTTTCTT [XGTACX_site7049]”, with 9.83; and “TAATATGATCTTAATAGTACTTTATTAATAATAACC [XGTACX_site1953]”, with 9.56; and “GCACACATATAATAATGTACATATATATATTTAAAA [XGTACX_site4561]”, with 9.86. For the sequence “TATTGATTATTTGAATGTACTTATTATATTAAATAT [XGTACX_site1304]”, the “gcPBM binding intensity (ln)” value was 9.53. Then “AATAAAAATATTTTTACATGCAAATGTTATATATTT [TGCATGCA_site1056]”, with 9.56. With “ACACGCACATATATATAAATATATATATATATAAAT [CACACA_negctrl_site1781]” the figure was 10.1; with “GTGATTAATATATACACACATACATATATATATATA [CACACA_site2817]”, 9.81; with “ATATATATGTATACATGTACATATTTTATTATGTGC [XGTACX_site7207]”, 9.89. With “GGTATACACAAGTATACACACATATAAATATAAATA [CACACA_site7511]” the figure was 9.88; with “TCTTTTAACACATGTGATATTATTTAATAACAATAA [CACACA_negctrl_site339]”, 9.55; with “TGTACATATATATATATATATGTTACTGAAATAAAA [CACACA_negctrl_site1658]”, 9.57.

As for “AAGAATAACTTTTATACATGCAGCATAATATATTGT [TGCATGCA_site605]”, the “gcPBM binding intensity (ln)” value was determined as 9.64. With “CTTTTATAATTCATATGTACTTATTTTTAACATAGG [XGTACX_site7808]” the figure was 9.55; with “AATAACCACAGACACACACACATATAAATATAAATA [CACACA_site7631]”, 10.9. With “TTATTTTATTTAGGGTGTACCCAATTTTTCCATATG [XGTACX_site4957]” the figure was 9.54; with “ACTGTAATATTGAAAGTGCATTAAAGTGTATATTAT [GTGCAC_site9970]”, 9.78; with “ATTTATATTTATAAATGTACACATATATATTTCATT [XGTACX_site2723]”, 9.7. Then “TCCTATAATTTTTTAATCAAAATATTTTATCCTTTG [CACACA_negctrl_site793]”, with 9.6; and “AAAAATTTTTTACATCGTACAGATATATATAATAAA [XGTACX_site3331]”, with 9.44; and “TTACAGATATTTATCTGTACATATATTTAAAAATAT [XGTACX_site7431]”, with 9.4.

“TAATTTTTTTAAAAGCGTACATTTAAAAAAAAATAT [XGTACX_site2736]”: the “gcPBM binding intensity (ln)” value was 9.32. With “AAAAGTAAAAAAAAAAAAAGTAAAAAAAAAAAAAAA [CACACA_negctrl_site389]” the figure was 8.8. As to “TTTTTAAATTCTTTAATATGTTTTATATATCAAAAT [CACACA_negctrl_site75]”, the “gcPBM binding intensity (ln)” value stood at 9.44. Then “TCTTATCATTTTAAATCACACACATATATATATATA [CACACA_site8925]”, with 9.9.

As for “ATACATAAATTTTGTACACACAAAAAAAAAAAAGCT [CACACA_site1351]”, the “gcPBM binding intensity (ln)” value stood at 9.97. With “TTTATATATATAAATATGTAGATAACAATATTCTGA [TGCATGCA_negctrl_site554]” the figure was 9.47; with “TTATTCCTTTTCCTTTTTTTTTTTTAACCAAAAAAA [CACACA_negctrl_site309]”, 9.4. With “AAAATATACATATATGCATGCATATAAATAAAAAAA [TGCATGCA_site812]” the figure was 9.89; with “TATATATATTTATGCACACAAAATATATTATAGAAT [CACACA_site3740]”, 9.74. Then “AATGTTTATTTTGTTTGTACATAAAATGAATAAAAT [XGTACX_site1456]”, with 9.49. With “GTTATATATTTTTATGCATGCATTTTTAAATATATA [TGCATGCA_site175]”, the “gcPBM binding intensity (ln)” value was determined as 9.73. On to “GTTTTTTTGTTTTAAAGTACTTAAAAAAAAAATATA [XGTACX_site6998]”, for which the “gcPBM binding intensity (ln)” value amounted to 9.36. Then “GATAAAACGTTATGCACACGTACGTGAGTATTTATA [CACACA_site1570]”, with 9.87; and “AATGATAAATAAAAAGCATGCAACAAATAAAAATAA [TGCATGCA_site453]”, with 10.1. As for “AACAAAACTTTGGATACATGCAAAATTTTTAAATGA [TGCATGCA_site249]”, the “gcPBM binding intensity (ln)” value was 9.6. With TCATTTTTTTGTTTGGTGCGACTTGAAAATTTGATT the figure was 9.79; with “TTGTACATCTTTTGCACACGTAATGTTATTATAATA [CACACA_site1258]”, 9.87; with “TTATAACTTTTGAGCACACACAAGCATATAAATATA [CACACA_site6933]”, 9.77.

“AAATACTGTAAAAAAGCATGCCACTAATAATAATTA [TGCATGCA_site759]”: the “gcPBM binding intensity (ln)” value amounted to 9.71. Then “AGAGAATAAATATAAAGTACATATATAAATATATAT [XGTACX_site5055]”, with 9.7; and “ATGTTATAAATCTTAATATATATATGCAAAAGAGAA [XGTACX_negctrl_site521]”, with 9.69. Then “ACATATACAAAACACACACACAACGTTTTAATAAAT [CACACA_site1979]”, with 10.7; and “GTATATAAAAATTCATGTACATATTATTATTTTTAA [XGTACX_site658]”, with 9.54. Then “ACCTTTGTAGTTGGTCCACACACATATATGGAAGAA [CACACA_site8351]”, with 9.97. In the case of “CATACATTTAAAAAGTGTACGTATATGAAAAAAGGA [XGTACX_site6512]”, the “gcPBM binding intensity (ln)” value was determined as 9.68. Then “ATATGTGTTATTTATACATGCAGAAGAATATCTATT [TGCATGCA_site828]”, with 9.7; and “TGTGTGTGTATATGTGTGCACATATAAAATAGAAGA [GTGCAC_site9714]”, with 10.7.

On to “ACATATATATAATATATATATCATCATATTTTCTTA [CACACA_negctrl_site853]”, for which the “gcPBM binding intensity (ln)” value came to 9.66. With “CTCAATATTATTACTACACACAAATTAAAATTTTCC [CACACA_site4203]” the figure was 9.77; with “AATAATCATGATCAAAGTACGTATGATTAAAAAAAA [XGTACX_site4916]”, 9.76. Turning to “TATATGTAAATGGACACACACATATATATATATATA [CACACA_site3659]”, the “gcPBM binding intensity (ln)” value came out at 9.91. With “TATGACCTTAGTAATTGTACACAAACATATTAATAT [XGTACX_site3340]” the figure was 9.71; with “GAGTATATGATATATATATATATATAAAAAAAAAAA [GTGCAC_negctrl_site99]”, 10. With “TTGAGTTGTATAAAAAGTACAAGGTTTTAACTAAAT [XGTACX_site1447]” the figure was 9.64. Then “TTATAATATTCATAAGGTACAGTTTATATATGTTAT [XGTACX_site8442]”, with 9.61; and “ATATATATTATATGCACACTAATAAGACTATTTAAA [CACACA_site3554]”, with 9.66. With “GTATATGTACTATACGCACACACACCCACATATATA [CACACA_site9062]”, the “gcPBM binding intensity (ln)” value is 10.3.
